# Where “and” joins values, the source holds several entries; their conditions need not be identical. Equal values may be shown once. The shares of active, inactive and inconclusive entries below differ from those in the screen. For some of these results: Where the call is inconclusive, the potency comes from a doubtful curve fit. More than one record can exist for a structure, and the calls need not agree. Calls of active or inactive are those of the source. Unless noted, calls come from the whole dose curve; as a rule, active = well fitted curve in the direction sought with a large enough effect in the repeat runs; inconclusive = weak or mixed curves; inactive = no such curve, though single readings can be large; an effect the other way counts as inactive or inconclusive. Peptide text beside a SMILES is read from it.
# Legend:
# [1] = molecular target: Estrogen receptor beta (Homo sapiens) (UniProt Q92731); experiment: qHTS assay to identify small molecule agonists of the estrogen receptor beta (ER-beta) signaling pathway (AID 1259377; active = well fitted activation curve with a large enough effect in the signal ratio in the repeat runs, not every such curve was filed as active; inconclusive = weak or mixed curves, or effect the other way; the % refers to the signal ratio; for activation: % is set by controls: 0 for no effect and ±100 for the full control effect); conditions: ER-beta-UAS-bla HEK293T, beta-lactamase FRET ratio, 16 h
# Procedure, shortened: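 Screening used GripTite ER-beta-UAS-bla cells held in 2% charcoal-stripped FBS medium. After overnight (16 hr) compound incubation at 37C, beta-lactamase activity was detected with a FRET substrate by fluorescence.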
# [2] = molecular target: Estrogen receptor beta (Homo sapiens) (UniProt Q92731); experiment: qHTS assay to identify small molecule antagonists of the estrogen receptor beta (ER-beta) signaling pathway (AID 1259378; active = well fitted inhibition curve with a large enough effect in the signal ratio in the repeat runs, not every such curve was filed as active; inconclusive = weak or mixed curves, or effect the other way; inactive = no such curve, though single readings can be large or run the other way; the % refers to the signal ratio; for activity, negative = inhibition: % is set by controls: 0 for no effect and ±100 for the full control effect); conditions: ER-beta-UAS-bla HEK293T, beta-lactamase FRET ratio, 16 h; activity, negative = inhibition: at 92.4 µM (top of the series) unless noted
# Procedure, shortened: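 Antagonist mode: compounds added to beta-lactamase reporter HEK293T ER-beta-UAS cells stimulated with E2 (1nM final), 16 hr at 37C. LiveBLAzer B/G FRET substrate, 2 hours room temperature, fluorescence read-out.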
# [3] = qHTS assay to identify small molecule agonists of the androgen receptor (AR) signaling pathway in the presence of an antagonist - cell viability counter screen (AID 1259379); note: nearly all actives have a fitted effect of over 25% in size
# Procedure, shortened: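 Nilutamide-containing (3.0uM final) MDA-kb2 cultures, 3,000 cells/well, were treated with compounds across 15 concentrations. After 16 hr at 37C with no CO2, cell viability was determined by CellTiter-Fluor fluorescence in the luciferase assay wells.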
# [4] = qHTS assay to identify small molecule agonists of the estrogen receptor beta (ER-beta) signaling pathway - cell viability counter screen (AID 1259380); note: nearly all actives have a fitted effect of over 30% in size
# Procedure, shortened: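 Steps: plate ER-beta-UAS-bla HEK293T cells, rest 6 hr; add compounds in DMSO; incubate 16 hr at 37C, 5% CO2; add FRET substrate 2 hr; add CellTiter-Glo, wait 30 min at room temperature; read luminescence.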
# [5] = qHTS assay to identify small molecule antagonists of the sonic hedgehog signaling (Shh) pathway (AID 1259369; calls by dose curve; note: nearly all actives have a fitted effect of over 45% in size)
# Procedure, shortened: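 Stable Gli1-Luc reporter NIH/3T3 clone; quantitative HTS in stimulated mode with conditioned medium. Luminescence measured after 24hr compound treatment at 37 C.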
# [6] = qHTS assay to identify small molecule antagonists of the estrogen receptor beta (ER-beta) signaling pathway - cell viability counter screen (AID 1259382); note: nearly all actives have a fitted effect of over 55% in size
# Procedure, shortened: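 Viability is scored by CellTiter-Glo luminescence (30 min, room temperature) in ER-beta-UAS-bla HEK293T wells already read for reporter fluorescence. Compound exposure lasts 16 hr at 37C alongside 1nM 17-beta-estradiol in charcoal-stripped serum medium.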
# [7] = qHTS assay to identify small molecule agonists of the estrogen receptor alpha (ER-alpha) signaling pathway in the presence of an antagonist - cell viability counter screen (AID 1259386);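 note: cells exposed to compounds for 22 h at 37 °C before the viability read; nearly all actives have a fitted effect of over 30% in size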
# Procedure, shortened: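 In this counter screen, compound effects on VM7Luc4E2 viability were tested in the presence of the antagonist ICI-182,780 at 10.0nM final. Compounds were dosed at 15 concentrations, exposure lasted 22hr, and the CellTiter-Fluor signal was read.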
# [8] = qHTS assay to identify small molecule agonists or antagonists of the thyroid stimulating hormone receptor (TSHR) signaling pathway - wild type cell line counter screen (AID 1259384; calls by dose curve; for cAMP activity change: % is set by controls: 0 for no effect and ±100 for the full control effect); conditions: HEK293 wild type, cAMP HTRF counter-screen; cAMP activity change: at 92.4 µM (top of the series), stronger effect = higher value unless noted
# Procedure, shortened: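 Counter screen in untransfected Hek293: compounds (15-point titration, triplicate) plus phosphodiesterase inhibitor Ro20-1724 added after 18 h plating; 30 min RT. Intracellular cAMP via competitive d2/cryptate immunoassay, 1 h incubation.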
# [9] = molecular target: Thyrotropin receptor (Homo sapiens) (UniProt P16473); experiment: qHTS assay to identify small molecule antagonists of the thyroid stimulating hormone receptor (TSHR) signaling pathway (AID 1259385; calls by dose curve; note: nearly all actives have a fitted effect of over 20% in size; for activity change, negative = inhibition: % is set by controls: 0 for no effect and ±100 for the full control effect); conditions: TSHR-HEK293 cAMP HTRF, TSH-stimulated antagonist mode; activity change, negative = inhibition: at 92.4 µM (top of the series) unless noted
# Procedure, shortened: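 Antagonist mode: compound-treated TSHR-expressing HEK293 cells were stimulated with 1.5 ng/mL TSH (final) in presence of Ro20-1724 for 30 min at RT. HTRF cAMP detection after 1 h; each compound tested at 15 concentrations, triplicate.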
# [10] = molecular target: Estrogen receptor (Homo sapiens) (UniProt P03372); experiment: qHTS assay to identify small molecule agonists of the estrogen receptor alpha (ER-alpha) signaling pathway in the presence of an antagonist (AID 1259383; calls by dose curve; note: nearly all actives have a fitted effect of over 15% in size)
# Procedure, shortened: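 Readout was ERE-driven luciferase luminescence in VM7Luc4E2 cells, which express full-length ER-alpha endogenously. Compounds were tested at 15 concentrations for 22hr alongside 10.0nM ICI-182,780 (final concentration).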
# [11] = activation: at 92.4 µM (top of the series) unless noted
# Potency is the fitted concentration of half-maximal effect; tags give direction and shape of the fitted curve or compound fluorescence and quenching.
# Chain of UniProt P16473 (P16473 whole entry, looked up): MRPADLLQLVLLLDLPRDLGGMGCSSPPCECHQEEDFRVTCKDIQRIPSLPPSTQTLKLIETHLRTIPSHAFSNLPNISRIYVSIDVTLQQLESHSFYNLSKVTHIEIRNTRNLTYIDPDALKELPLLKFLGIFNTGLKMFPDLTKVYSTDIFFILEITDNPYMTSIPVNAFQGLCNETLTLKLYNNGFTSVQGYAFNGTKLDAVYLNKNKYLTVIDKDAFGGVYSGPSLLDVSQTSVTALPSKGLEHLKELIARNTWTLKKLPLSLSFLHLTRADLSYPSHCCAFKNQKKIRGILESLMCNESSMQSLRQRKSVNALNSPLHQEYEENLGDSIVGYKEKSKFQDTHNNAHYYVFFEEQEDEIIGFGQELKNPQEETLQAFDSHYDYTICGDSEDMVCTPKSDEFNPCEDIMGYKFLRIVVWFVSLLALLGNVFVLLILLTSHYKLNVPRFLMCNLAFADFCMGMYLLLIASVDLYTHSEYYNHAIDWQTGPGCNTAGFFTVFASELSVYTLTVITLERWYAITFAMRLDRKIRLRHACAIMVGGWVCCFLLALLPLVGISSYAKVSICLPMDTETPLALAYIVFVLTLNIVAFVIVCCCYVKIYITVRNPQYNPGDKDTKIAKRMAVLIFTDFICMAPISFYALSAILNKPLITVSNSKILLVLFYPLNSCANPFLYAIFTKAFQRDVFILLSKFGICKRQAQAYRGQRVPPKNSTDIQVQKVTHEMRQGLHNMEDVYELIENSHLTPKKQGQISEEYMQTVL
# Chain of UniProt Q92731 (Q92731 whole entry, looked up): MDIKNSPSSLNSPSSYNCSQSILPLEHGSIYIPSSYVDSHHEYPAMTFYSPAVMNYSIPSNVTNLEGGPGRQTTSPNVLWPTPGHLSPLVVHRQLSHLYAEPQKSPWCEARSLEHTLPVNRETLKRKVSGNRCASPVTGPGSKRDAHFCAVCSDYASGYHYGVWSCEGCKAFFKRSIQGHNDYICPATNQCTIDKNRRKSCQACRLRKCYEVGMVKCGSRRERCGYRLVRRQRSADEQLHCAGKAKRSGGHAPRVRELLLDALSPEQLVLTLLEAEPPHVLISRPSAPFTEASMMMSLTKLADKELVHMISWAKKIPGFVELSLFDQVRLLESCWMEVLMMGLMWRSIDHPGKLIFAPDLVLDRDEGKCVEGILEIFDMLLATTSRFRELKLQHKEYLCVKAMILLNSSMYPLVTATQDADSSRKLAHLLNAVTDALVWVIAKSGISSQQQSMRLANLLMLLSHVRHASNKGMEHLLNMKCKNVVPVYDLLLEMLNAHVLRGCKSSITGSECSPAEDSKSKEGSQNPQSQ
# Chain of UniProt P03372 (P03372 whole entry, looked up): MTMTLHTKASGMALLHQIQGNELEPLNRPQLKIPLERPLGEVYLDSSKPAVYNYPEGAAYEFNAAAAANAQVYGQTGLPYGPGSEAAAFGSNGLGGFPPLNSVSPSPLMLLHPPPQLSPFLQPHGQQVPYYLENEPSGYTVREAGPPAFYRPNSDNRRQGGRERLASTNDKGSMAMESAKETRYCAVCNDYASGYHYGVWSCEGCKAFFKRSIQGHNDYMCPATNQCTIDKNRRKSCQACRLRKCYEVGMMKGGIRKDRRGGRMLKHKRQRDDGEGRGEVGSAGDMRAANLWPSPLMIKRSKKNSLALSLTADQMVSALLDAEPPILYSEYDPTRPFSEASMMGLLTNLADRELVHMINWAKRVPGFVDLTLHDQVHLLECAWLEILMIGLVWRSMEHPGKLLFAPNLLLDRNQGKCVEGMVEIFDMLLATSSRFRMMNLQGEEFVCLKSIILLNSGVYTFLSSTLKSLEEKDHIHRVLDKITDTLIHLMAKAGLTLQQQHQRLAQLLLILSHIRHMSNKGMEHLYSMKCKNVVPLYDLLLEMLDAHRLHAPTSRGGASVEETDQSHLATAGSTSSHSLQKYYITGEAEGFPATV
smiles,measurement,setting,value
Cc1nc(-c2ccc3c(c2)CCN(CCC2CCC(NC(=O)/C=C/c4ccc(F)cc4)CC2)CC3)no1 (configuration not stated),Potency,[1]; [11],"inconclusive: 19.4 µM [activator, partial curve]"
same,"activity, negative = inhibition",[2],inconclusive: 24.3% [at 42.5 µM]
same,Potency,[3],inactive
CCCNC(=O)NS(=O)(=O)c1ccc(Cl)cc1,Potency,[4],"inconclusive: 33.5 µM [rising, single point]"
CCCCCCCCCCCCN,Potency,[5],"inconclusive: 69.1 µM [inhibitor, single point]"
same,Potency,[4],"inconclusive: 69.6 µM [cytotoxic, single point]"
same,Potency,[6],"inconclusive: 69.1 µM [cytotoxic, partial curve, poor fit] and active: 54.5 µM"
COc1ccc(OC(=O)N(CC(=O)O)Cc2ccc(OCCc3nc(-c4ccccc4)oc3C)cc2)cc1,Potency,[1]; [11],inconclusive: 13.3 µM
same,Potency,[2],active: 23.7 µM
same,Potency,[4],active: 16.8 µM
CCCCCCCCCCCCCOP(=O)(O)O,"activity, negative = inhibition",[2],inconclusive: -44.4%
same,Potency,[4],"inconclusive: 54.5 µM [cytotoxic, partial curve, poor fit]"
same,Potency,[7],"inconclusive: 27.3 µM [rising, partial curve, poor fit]"
CN(C)CCN(Cc1cccs1)c1ccccn1,Potency,[4],"inconclusive: 28.2 µM [cytotoxic, single point]"
same,Potency,[6],"inconclusive: 20 µM [cytotoxic, partial curve, poor fit]"
O=C(N[C@H](CO)[C@H](O)c1ccc([N+](=O)[O-])cc1)C(Cl)Cl,activation,[1]; [11],inconclusive: -2.31%
same,"activity, negative = inhibition",[2],inconclusive: -24.1%
same,Potency,[3],inactive
same,Potency,[4],"inconclusive: 24.3 µM [rising, single point]"
Nc1ccc(O)c(C(=O)O)c1,Potency,[8],inconclusive: 28.2 µM
same,Potency,[7],"active: 48.1 µM and active: 54.5 µM and inconclusive: 29.8 µM [cytotoxic, single point]"
O=C1CCCCCCCCCCCCCC1,Potency,[2],inactive
same,Potency,[4],"inconclusive: 68.6 µM [cytotoxic, single point]"
same,Potency,[9],inconclusive: 54.5 µM
SC1CCCCC1,Potency,[4],inactive
COc1ccc(C(Cl)=C(c2ccc(OC)cc2)c2ccc(OC)cc2)cc1,Potency,[10],"inconclusive: 15.4 µM [activator, partial curve]"
CCCCCC#CC(=O)OC,Potency,[4],"inconclusive: 38.6 µM [rising, partial curve, poor fit]"
O=C(OC[C@H]1O[C@@H](OC(=O)c2cc(O)c(O)c(OC(=O)c3cc(O)c(O)c(O)c3)c2)[C@H](OC(=O)c2cc(O)c(O)c(OC(=O)c3cc(O)c(O)c(O)c3)c2)[C@@H](OC(=O)c2cc(O)c(O)c(OC(=O)c3cc(O)c(O)c(O)c3)c2)[C@@H]1OC(=O)c1cc(O)c(O)c(OC(=O)c2cc(O)c(O)c(O)c2)c1)c1cc(O)c(O)c(OC(=O)c2cc(O)c(O)c(O)c2)c1,Potency,[4],"inconclusive: 5.22 µM [rising, partial curve, poor fit]"
same,cAMP activity change,[8],"inconclusive: -5.03% [at 18.9 µM, stronger effect = higher value]"
same,"activity change, negative = inhibition",[9],inconclusive: -10.7% [at 19 µM]
same,Potency,[7],active: 18.5 µM
COc1ccc2cc([C@H](C)C(=O)O)ccc2c1,Potency,[3],inactive
OCCOCCOCCOCCO,activation,[1]; [11],inconclusive: 8.39%
NCc1cccc(CN)c1,Potency,[2],inactive
same,Potency,[3],"inconclusive: 62.8 µM [cytotoxic, single point] and inconclusive: 38.6 µM [cytotoxic, partial curve]"
same,Potency,[7],"inconclusive: 61.1 µM [cytotoxic, partial curve, poor fit]"
CCN(CC)CCOC(=O)c1ccc(N)cc1,cAMP activity change,[8],inconclusive: -1.95%
O=CCc1ccccc1,Potency,[5],"inconclusive: 2.41 µM [inhibitor, single point] and inconclusive: 2.43 µM [inhibitor, single point]"
same,Potency,[4],"inconclusive: 68.6 µM [cytotoxic, single point]"
COC(=O)[C@H](Cc1ccccc1)NC(=O)[C@@H](N)CC(=O)O (H-Asp-Phe-OMe),Potency,[9],inactive
CC(C)Oc1ccc2c(=O)c(-c3ccccc3)coc2c1,Potency,[3],"inconclusive: 21.1 µM [cytotoxic, partial curve] and inconclusive: 18.8 µM [cytotoxic, partial curve]"
same,Potency,[4],"inconclusive: 5.96 µM [cytotoxic, full curve, poor fit] and inconclusive: 37.6 µM [cytotoxic, single point]"
same,"activity change, negative = inhibition",[9],inconclusive: -11.2% [at 42.5 µM]
COC(=O)[C@]1(C)CCC[C@@]2(C)[C@H]1CC=C1C=C(C(C)C)CC[C@@H]12,Potency,[2],inactive
same,Potency,[4],active: 68.6 µM
CCCCCCCCCCCCCCCCC(C(=O)O)C(O)(CC(=O)O)C(=O)O (configuration not stated),Potency,[4],"inconclusive: 33.5 µM [cytotoxic, single point]"
CCCCCCCCCCCCCCNCCO,Potency,[5],inactive
same,Potency,[9],active: 23.7 µM
CCCCCCCCCCCCCC(=O)OC(C)C,activation,[1]; at 42.5 µM (top of the series),inconclusive: 2.06%
same,activation,[1]; at 92.4 µM (top of the series),inconclusive: 7.86%
O=c1ccc2ccccc2o1,Potency,[1]; [11],inactive
same,"activity, negative = inhibition",[2],inconclusive: 1.13%
same,Potency,[4],"inconclusive: 29.8 µM [rising, single point]"
same,Potency,[9],inactive
CC1=C(CC(=O)O)c2cc(F)ccc2/C1=C\c1ccc(S(C)=O)cc1 (configuration not stated),Potency,[1]; [11],inactive
same,Potency,[2],inactive
CCC(Cc1c(I)cc(I)c(N)c1I)C(=O)O (configuration not stated),Potency,[3],inactive
same,Potency,[4],"inconclusive: 26.6 µM [cytotoxic, partial curve, poor fit]"
same,Potency,[6],"inconclusive: 33.5 µM [cytotoxic, partial curve, poor fit]"
Cc1cc(C(C)(C)C)c(O)c(C(C)(C)C)c1,Potency,[4],"inconclusive: 48.7 µM [cytotoxic, partial curve] and inconclusive: 68.6 µM [cytotoxic, single point]"
same,Potency,[9],inactive
O=C(O)c1cccnc1,Potency,[2],inactive
same,Potency,[4],inactive
same,Potency,[6],inactive
same,Potency,[7],inactive
CC(C)(C)c1cccc(C(C)(C)C)c1O,Potency,[5],"inconclusive: 18.9 µM [inhibitor, full curve, poor fit] and inconclusive: 6.86 µM [inhibitor, single point]"
same,Potency,[4],"inconclusive: 42.3 µM [cytotoxic, partial curve]"
OCC(CO)(CBr)CBr,Potency,[9],inactive
CN(C)c1cccc(O)c1,activation,[1]; [11],inconclusive: 5.96%
same,cAMP activity change,[8],inconclusive: -14.1%
same,Potency,[9],inconclusive: 62.1 µM
CCCCCCCCCCCCOCC1CO1 (configuration not stated),Potency,[3],inactive
same,Potency,[4],"inconclusive: 46.3 µM [cytotoxic, partial curve, poor fit]"
CCCCC/C(C=O)=C\c1ccccc1,activation,[1]; at 42.5 µM (top of the series),inconclusive: 8.86%
same,activation,[1]; at 92.4 µM (top of the series),inconclusive: 9.63%
O=C(CC(C(=O)OC1CCCCC1)S(=O)(=O)O)OC1CCCCC1 (configuration not stated),Potency,[5],"inconclusive: 75.9 µM [inhibitor, partial curve, poor fit]"
same,Potency,[4],inactive
CC(C)(c1ccccc1)c1ccc(Nc2ccc(C(C)(C)c3ccccc3)cc2)cc1,Potency,[5],inactive
same,Potency,[4],"inconclusive: 61.1 µM [rising, partial curve, poor fit]"
COCCCN,Potency,[9],inactive
Cc1ccc(S(=O)(=O)NC(=O)NN2CCCCCC2)cc1,Potency,[1]; [11],"inconclusive: 21.1 µM [falling, single point]"
same,"activity, negative = inhibition",[2],inconclusive: -24.2%
